Data published in PubChem BioAssay (NCATS).
Several values for one entry are separate records, joined by “and”; a condition that tells them apart may be missing. Identical values can stand only once. The inconclusive results got no clear call from the source; some entries with a clear call stand among them for comparison. Potencies beside an inconclusive call are fits to weak or partial responses and may not hold up. Activity calls are given as the source filed them. The call rests on the fitted dose curve; in most records, active means well fitted cell-killing curve with a large enough effect; inconclusive means small, poorly fitted or top-dose-only effect, or effect the other way; inactive means no such curve, though single readings can be large or run the other way.

Tests used:
[1] = Viability qHTS for spleen associated tyrosine kinase inhibitor (SYKi) naive MV4-11 cells (AID 1963823); conditions: MV4-11 AML viability, CellTiter-Glo luminescence, 72 h; viability (% of control): at 45 µM (top of the series); further: nearly all actives have a fitted effect of over 40% in size
Summary of the method: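 qHTS, SYK inhibitor-naive MV4-11; 500 cells/well; 72 hr compound exposure, 37 C; CellTiter-Glo added, 10 min RT; luminescence read.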

[2] = Viability qHTS for spleen associated tyrosine kinase inhibitor (SYKi) drug resistant MV4-11 cells (AID 1963824); further: nearly all actives have a fitted effect of over 35% in size
Summary of the method: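 CellTiter-Glo luminescence, read 10 min after reagent addition, reports viability after a 72 hr compound exposure. Cells are an MV4-11 line made resistant to SYK inhibition, seeded at 500 per well onto compound-containing plates.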
Potency means the concentration at half of the fitted maximal effect; tags describe the fitted curve by direction and shape.

SMILES | Potency [1] | Potency [2] | viability (% of control) [1] | viability, % of control [2]
C/C=C(\C)C1C(C)=CC2CCC(OS(=O)(=O)O)C(C)C2C1/C=C/C=C/C(=O)O (centres undefined) | inconclusive: 7.96 µM [cytotoxic, single point] | inconclusive: 7.09 µM [cytotoxic, partial curve] |  | 
CS(=O)(=O)c1ccc([C@@H](O)[C@@H](CF)NC(=O)C(Cl)Cl)cc1 | inconclusive: 7.5 µM [cytotoxic, partial curve, poor fit] and inconclusive: 5.8 µM [cytotoxic, full curve, poor fit] | inconclusive: 7.5 µM [cytotoxic, partial curve, poor fit] and inconclusive: 6.51 µM [cytotoxic, full curve] |  | 
COc1cc2c(c(OC)c1O)C(c1ccc(O)cc1)C1C(=O)OC3C(COC(=O)C1=C2)OC(CO)(OC1OC(COC(=O)/C=C/c2ccc(OC4OC(C)C(O)C(O)C4O)cc2)C(O)C(O)C1O)C3O (centres undefined) |  |  | inactive: 95.6% [at 9.25 µM] | inactive: 81.2% [at 9.25 µM]
CC(C)C1=CC2C(CC[C@]2(C)O)[C@](C)(O)CC1 (some centres undefined) | inactive | inactive |  | 
COc1ccc(CCC(=O)O)c(O[C@@H]2O[C@H](CO)[C@@H](O)[C@H](O)[C@H]2O)c1 | inconclusive: 0.0032 µM [rising, full curve] | inactive |  | 
O=C1OCc2cc3cccc(O[C@@H]4O[C@H](CO)[C@@H](O)[C@H](O)[C@H]4O)c3c(O)c21 | inactive | inactive |  | 
C[C@@H]1O[C@@H](O[C@H]2[C@H](O[C@H]3CC[C@@]4(C)C(CC[C@]5(C)C4CC=C4[C@@H]6CC(C)(C)CC[C@]6(C(=O)O[C@@H]6OC[C@H](O)[C@H](O)[C@H]6O[C@@H]6O[C@@H](C)[C@H](O[C@@H]7O[C@H](CO)[C@@H](O)[C@H](O)[C@H]7O)[C@H](O)[C@H]6O)[C@H](O)C[C@]45C)C3(C)C)O[C@H](CO)[C@@H](O[C@@H]3OC[C@@H](O)[C@H](O)[C@H]3O)[C@@H]2O)[C@H](O)[C@H](O)[C@H]1O (some centres undefined) |  | inconclusive: 0.0123 µM [cytotoxic, full curve, poor fit] | inactive: 79.8% [at 9.25 µM] | 
C/C(=C\C1CCC(C)C2CCC3(C)OC123)C(=O)O (centres undefined) | inconclusive: 36.6 µM [cytotoxic, single point] | inconclusive: 25.9 µM [cytotoxic, single point] |  | 
O=C(O)[C@H](O)[C@@H](O)[C@H](O[C@@H]1O[C@H](CO)[C@H](O)[C@H](O)[C@H]1O)[C@H](O)CO | inactive | inactive |  | 
C[C@@H]1O[C@@H](O[C@H]2[C@@H]3C=CO[C@@H](O[C@@H]4O[C@H](CO)[C@@H](O)[C@H](O)[C@H]4O)[C@@H]3[C@@]3(CO)O[C@@H]23)[C@H](O)[C@H](OC(=O)/C=C/c2ccc(O)c(O)c2)[C@H]1O | inactive | inactive |  | 
Cc1ccc(C(C)C)c(O)c1 | inconclusive: 0.0009 µM | inconclusive: 0.0015 µM [rising, full curve, poor fit] |  | 
Clc1ccc2ncc(-c3cccc(NC4CCNCC4)n3)n2c1 | inconclusive: 0.0092 µM [cytotoxic, full curve] | inconclusive: 0.0092 µM [cytotoxic, full curve] |  | 
CC[C@H](C)[C@@H]1NC(=O)[C@H](Cc2ccc(OC)cc2)NC(=O)CCCSC[C@@H](C(=O)N2CCC[C@H]2C(=O)N[C@@H](CC(C)C)C(=O)NCC(N)=O)NC(=O)[C@H](CC(N)=O)NC(=O)[C@H](CCC(N)=O)NC1=O | inactive | inactive |  | 
CC1=CC2C(CC1OC1OC(CO)C(O)C(O)C1O)C(C)CC(=O)C2C(C)C (centres undefined) | inconclusive: 20.2 µM [cytotoxic, single point] | inactive |  | 
Cc1onc(-c2c(Cl)cccc2Cl)c1C(=O)N[C@@H]1C(=O)N2[C@@H]1SC(C)(C)[C@@H]2C(=O)O | inconclusive: 18.8 µM [cytotoxic, single point] | inconclusive: 33.5 µM [cytotoxic, single point] |  | 
CCOC(=O)Nc1nc2ccccc2[nH]1 | inconclusive: 13 µM [cytotoxic, partial curve] | active: 10.3 µM |  | 
Brc1c(Br)c(Br)c2n[nH]nc2c1Br | inconclusive: 18.4 µM [cytotoxic, single point] | inconclusive: 18.4 µM [cytotoxic, single point] |  | 
